A lower IC50 marks a more sensitive line; fits outside the tested doses are given as limits. For AUC the same curve is integrated over the 256-fold range of doses and scaled to a fraction: 1 means no effect, lower means more sensitive. For some of these results: Any top dose called inferred comes from the curve model; the source does not state it.
How the values were obtained:
Assay in all cases: Viability of human cancer cell lines after 72 h of drug (GDSC screen)
S-Trityl-L-cysteine = compound: N[C@@H](CSC(c1ccccc1)(c1ccccc1)c1ccccc1)C(=O)O [S-Trityl-L-cysteine]; conditions: top dose 5.12 µM; top dose inferred
Procedure: (§1)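 Human cancer cell lines in 384-well plates, medium with 10% serum, drug for 72 h over a 256-fold dose range (nine 2-fold or five 4-fold steps up to the top dose). Adherent lines were fixed and stained with the nucleic acid dye Syto60, suspension lines read with resazurin; signal relative to control wells, capped at 0 and 100%. One two-parameter sigmoid per drug and line, fitted in a mixed model over all curves with the slope shared within a line.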

Vinorelbine = compound: CCC1=C[C@@H]2CN(C1)Cc1c([nH]c3ccccc13)[C@@](C(=O)OC)(c1cc3c(cc1OC)N(C)[C@H]1[C@@](O)(C(=O)OC)[C@H](OC(C)=O)[C@]4(CC)C=CCN5CC[C@]31[C@@H]54)C2 [Vinorelbine]; conditions: top dose 0.064 µM; top dose inferred
Procedure: as §1

QL-XI-92 = compound: C=CC(=O)Nc1cc(NC(=O)c2ccc(C)c(NC(=O)c3ccno3)c2)cc(C(F)(F)F)c1 [QL-XI-92]; conditions: top dose 10.24 µM; top dose inferred
Procedure: as §1

AG-014699 = compound: CNCc1ccc(-c2[nH]c3cc(F)cc4c3c2CCNC4=O)cc1 [AG-014699]; conditions: top dose 5 µM; top dose inferred
Procedure: as §1

WHI-P97 = compound: COc1cc2ncnc(Nc3cc(Br)c(O)c(Br)c3)c2cc1OC [WHI-P97]; conditions: top dose 10.24 µM; top dose inferred
Procedure: as §1

EHT 1864 = compound: O=c1cc(CN2CCOCC2)occ1OCCCCCSc1ccnc2cc(C(F)(F)F)ccc12 [EHT 1864]; conditions: top dose 10 µM; top dose inferred
Procedure: as §1

Phenformin = compound: N=C(N)NC(=N)NCCc1ccccc1 [Phenformin]; conditions: top dose 4000 µM; top dose inferred
Procedure: as §1

XL-184 = compound: COc1cc2nccc(Oc3ccc(NC(=O)C4(C(=O)Nc5ccc(F)cc5)CC4)cc3)c2cc1OC [XL-184]; conditions: top dose 5.12 µM; top dose inferred
Procedure: as §1

Gefitinib = compound: COc1cc2ncnc(Nc3ccc(F)c(Cl)c3)c2cc1OCCCN1CCOCC1 [Gefitinib]; conditions: top dose 0.5 µM
Procedure: as §1

NU-7441 = compound: O=c1cc(N2CCOCC2)oc2c(-c3cccc4c3sc3ccccc34)cccc12 [NU-7441]; conditions: top dose 2 µM; top dose inferred
Procedure: as §1

Cell Line | AUC (S-Trityl-L-cysteine) | IC50 (S-Trityl-L-cysteine) [µM] | AUC (Vinorelbine) | IC50 (Vinorelbine) [µM] | AUC (QL-XI-92) | IC50 (QL-XI-92) [µM] | AUC (AG-014699) | IC50 (AG-014699) [µM] | AUC (WHI-P97) | IC50 (WHI-P97) [µM] | AUC (EHT 1864) | IC50 (EHT 1864) [µM] | AUC (Phenformin) | IC50 (Phenformin) [µM] | AUC (XL-184) | IC50 (XL-184) [µM] | AUC (Gefitinib) | IC50 (Gefitinib) [µM] | AUC (NU-7441) | IC50 (NU-7441) [µM]
CP67-MEL (melanoma, adherent) | 0.751 | 3.04 |  |  |  |  |  |  |  |  |  |  |  |  |  |  |  |  |  | 
EW-12 (Ewing sarcoma, suspension) | 0.975 | > 5.12 |  |  |  |  |  |  |  |  |  |  |  |  |  |  |  |  |  | 
KP-N-RT-BM-1 (neuroblastoma, semi-adherent) | 0.904 | > 5.12 |  |  |  |  |  |  |  |  |  |  |  |  |  |  |  |  |  | 
NK-92MI (lymphoid neoplasm, suspension) | 0.804 | 2.36 | 0.943 | > 0.064 |  |  |  |  |  |  |  |  |  |  |  |  |  |  |  | 
SW948 (large intestine, adherent) |  |  | 0.732 | 0.0254 | 0.976 | > 10.2 | 0.982 | > 5 | 0.962 | > 10.2 | 0.965 | > 10 | 0.543 | 344 | 0.937 | > 5.12 | 0.979 | > 0.5 | 0.982 | > 2
SW1271 (small cell lung carcinoma, adherent) |  |  | 0.754 | 0.0245 | 0.911 | > 10.2 | 0.975 | > 5 | 0.828 | 7.64 | 0.984 | > 10 | 0.762 | 1640 | 0.872 | > 5.12 | 0.984 | > 0.5 | 0.978 | > 2
SW1417 (large intestine, adherent) |  |  | 0.909 | > 0.064 | 0.977 | > 10.2 | 0.986 | > 5 | 0.969 | > 10.2 | 0.962 | > 10 | 0.835 | 3280 | 0.937 | > 5.12 | 0.986 | > 0.5 | 0.978 | > 2
SW1573 (lung adenocarcinoma, adherent) |  |  | 0.711 | 0.0197 | 0.963 | > 10.2 | 0.875 | > 5 | 0.974 | > 10.2 | 0.878 | > 10 | 0.71 | 1220 | 0.967 | > 5.12 | 0.976 | > 0.5 | 0.96 | > 2
SW1710 (bladder, adherent) |  |  | 0.441 | 0.00275 | 0.906 | > 10.2 | 0.935 | > 5 | 0.92 | > 10.2 | 0.899 | > 10 | 0.929 | > 4000 | 0.927 | > 5.12 | 0.977 | > 0.5 | 0.974 | > 2
SW1783 (glioma, adherent) |  |  | 0.953 | > 0.064 | 0.988 | > 10.2 | 0.99 | > 5 | 0.991 | > 10.2 | 0.954 | > 10 | 0.732 | 1060 | 0.962 | > 5.12 | 0.982 | > 0.5 | 0.965 | > 2
Saos-2 (osteosarcoma, adherent) |  |  | 0.948 | > 0.064 | 0.981 | > 10.2 | 0.977 | > 5 | 0.981 | > 10.2 | 0.973 | > 10 | 0.964 | > 4000 | 0.981 | > 5.12 | 0.976 | > 0.5 | 0.962 | > 2
T84 (large intestine, adherent) |  |  | 0.863 | 0.0568 | 0.969 | > 10.2 | 0.984 | > 5 | 0.968 | > 10.2 | 0.976 | > 10 | 0.811 | 2160 | 0.94 | > 5.12 | 0.986 | > 0.5 | 0.988 | > 2
T98G (glioma, adherent) |  |  | 0.74 | 0.0182 | 0.984 | > 10.2 | 0.967 | > 5 | 0.977 | > 10.2 | 0.979 | > 10 | 0.846 | 2590 | 0.911 | > 5.12 | 0.99 | > 0.5 | 0.982 | > 2
TGBC11TKB (stomach, adherent) |  |  | 0.795 | 0.0259 | 0.991 | > 10.2 | 0.988 | > 5 | 0.99 | > 10.2 | 0.982 | > 10 | 0.852 | 2540 | 0.976 | > 5.12 | 0.984 | > 0.5 | 0.983 | > 2
TK10 (kidney, adherent) |  |  | 0.87 | > 0.064 | 0.957 | > 10.2 | 0.975 | > 5 | 0.885 | > 10.2 | 0.891 | > 10 | 0.975 | > 4000 | 0.921 | > 5.12 | 0.871 | > 0.5 | 0.939 | > 2
TK (B-cell lymphoma, suspension) |  |  | 0.743 | 0.0184 | 0.99 | > 10.2 | 0.99 | > 5 | 0.961 | > 10.2 | 0.99 | > 10 | 0.576 | 396 | 0.922 | > 5.12 | 0.986 | > 0.5 | 0.99 | > 2
TMK-1 (stomach, adherent) |  |  | 0.506 | 0.00416 | 0.984 | > 10.2 | 0.946 | > 5 | 0.963 | > 10.2 | 0.972 | > 10 | 0.904 | > 4000 | 0.967 | > 5.12 | 0.962 | > 0.5 | 0.916 | > 2
TOV-21G (ovary, adherent) |  |  | 0.958 | > 0.064 | 0.984 | > 10.2 | 0.943 | > 5 | 0.982 | > 10.2 | 0.858 | 9.38 | 0.855 | 3630 | 0.984 | > 5.12 | 0.949 | > 0.5 | 0.97 | > 2
